# According to the supplement of paper PMC8728848:
# This is one part of the list.
# Experiments:
# Experiment in all cases: glycan array binding signal (z-score within array); higher = stronger binding
# Settings in all cases: glycan notation: IUPAC condensed, linker removed; mutation: G182A
# [1] = molecular target: Neu5Ac(a2-6)Gal(b1-4)GlcNAc6S
# Summary of the method: (§1)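 The Consortium for Functional Glycomics database supplied 3228 glycan arrays, of which those lacking an available protein sequence were dropped. The binding signal, a within-array Z-score, was averaged across arrays of the same protein sequence and across linkers. Negative scores can be read as non-binding.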
# [2] = molecular target: Neu5Ac(a2-6)GalNAc
# Summary of the method: as §1
# [3] = molecular target: Neu5Ac(a2-6)GalNAc(b1-4)GlcNAc
# Summary of the method: as §1
# [4] = molecular target: Neu5Ac(a2-6)GlcNAc(b1-4)GlcNAc
# Summary of the method: as §1
# [5] = molecular target: Neu5Ac(a2-6)GlcNAc(b1-4)GlcNAc(b1-4)GlcNAc
# Summary of the method: as §1
# [6] = molecular target: Neu5Ac(a2-8)Neu5Ac
# Summary of the method: as §1
# [7] = molecular target: Neu5Ac(a2-8)Neu5Ac(a2-3)Gal(b1-4)Glc
# Summary of the method: as §1
# [8] = molecular target: Neu5Ac(a2-8)Neu5Ac(a2-3)[GalNAc(b1-4)]Gal(b1-4)Glc
# Summary of the method: as §1
# [9] = molecular target: Neu5Ac(a2-8)Neu5Ac(a2-8)Neu5Ac
# Summary of the method: as §1
# [10] = molecular target: Neu5Ac(a2-8)Neu5Ac(a2-8)Neu5Ac(a2-3)Gal(b1-4)Glc
# Summary of the method: as §1
# [11] = molecular target: Neu5Ac(a2-8)Neu5Ac(a2-8)Neu5Ac(a2-3)[GalNAc(b1-4)]Gal(b1-4)Glc
# Summary of the method: as §1
# [12] = molecular target: Neu5Ac(a2-8)Neu5Ac(a2-8)Neu5Ac(a2-8)Neu5Ac(a2-3)[GalNAc(b1-4)]Gal(b1-4)Glc
# Summary of the method: as §1
# [13] = molecular target: Neu5Ac(b2-6)Gal(b1-4)GlcNAc
# Summary of the method: as §1
# [14] = molecular target: Neu5Ac(b2-6)GalNAc
# Summary of the method: as §1
# [15] = molecular target: Neu5Ac9Ac(a2-3)Gal(b1-3)GlcNAc
# Summary of the method: as §1
# [16] = molecular target: Neu5Ac9Ac(a2-3)Gal(b1-4)GlcNAc
# Summary of the method: as §1
# [17] = molecular target: Neu5Ac9Ac(a2-6)Gal(b1-4)GlcNAc
# Summary of the method: as §1
# [18] = molecular target: Neu5Gc(a2-3)Gal(b1-3)GlcNAc
# Summary of the method: as §1
# [19] = molecular target: Neu5Gc(a2-3)Gal(b1-3)[Fuc(a1-4)]GlcNAc
# Summary of the method: as §1
# [20] = molecular target: Neu5Gc(a2-3)Gal(b1-4)Glc
# Summary of the method: as §1
# [21] = molecular target: Neu5Gc(a2-3)Gal(b1-4)GlcNAc
# Summary of the method: as §1
# [22] = molecular target: Neu5Gc(a2-3)Gal(b1-4)[Fuc(a1-3)]GlcNAc
# Summary of the method: as §1
# [23] = molecular target: Neu5Gc(a2-6)Gal(b1-4)GlcNAc
# Summary of the method: as §1
# [24] = molecular target: Neu5Gc(a2-6)GalNAc
# Summary of the method: as §1
# [25] = molecular target: Neu5Gc(b2-6)Gal(b1-4)GlcNAc
# Summary of the method: as §1
binder,measurement,setting,value
"Gal 3 (Homo sapiens), P17931 (protein) MADNFSLHDALSGSGNPNPQGWPGAWGNQPAGAGGYPGASYPGAYPGQAPPGAYPGQAPPGAYHGAPGAYPGAPAPGVYPGPPSGPGAYPSSGQPSAPGAYPATGPYGAPAGPLIVPYNLPLPGGVVPRMLITILGTVKPNANILDFQRGNDVAFHFNPRFNENNRRVIVCNTKLDNNWAREERQSVFPFESGKPFKIQVLVEPDHFKVAVNDAHLLQYNHRVKKLNEISKLGISGDIDLTSASYTMI",glycan array binding signal (z-score),[1],-0.184
same,glycan array binding signal (z-score),[2],-0.161
same,glycan array binding signal (z-score),[3],-0.191
same,glycan array binding signal (z-score),[4],-0.189
same,glycan array binding signal (z-score),[5],-0.191
same,glycan array binding signal (z-score),[6],-0.188
same,glycan array binding signal (z-score),[7],-0.185
same,glycan array binding signal (z-score),[8],-0.138
same,glycan array binding signal (z-score),[9],-0.183
same,glycan array binding signal (z-score),[10],-0.191
same,glycan array binding signal (z-score),[11],-0.167
same,glycan array binding signal (z-score),[12],-0.192
same,glycan array binding signal (z-score),[13],-0.159
same,glycan array binding signal (z-score),[14],-0.191
same,glycan array binding signal (z-score),[15],-0.197
same,glycan array binding signal (z-score),[16],-0.185
same,glycan array binding signal (z-score),[17],-0.189
same,glycan array binding signal (z-score),[18],-0.173
same,glycan array binding signal (z-score),[19],-0.192
same,glycan array binding signal (z-score),[20],-0.195
same,glycan array binding signal (z-score),[21],-0.181
same,glycan array binding signal (z-score),[22],-0.193
same,glycan array binding signal (z-score),[23],-0.189
same,glycan array binding signal (z-score),[24],-0.182
same,glycan array binding signal (z-score),[25],-0.19
